Measurements published in the supplement of paper PMC4967469.
By IC50 is meant the dose at which the fit gives 50% viability; fits outside the tested doses are given as limits. The AUC spans the tested range (256-fold, ending at the top dose) of the same fit; the more sensitive the line, the further below 1. For some assays here: An inferred top dose comes from the curve model; the source does not state it. For some assays here: Drugs with an entry number were screened twice under separate entries, and the two screens often disagree.

Tests used:
Test in all cases: Viability of human cancer cell lines after 72 h of drug (GDSC screen)
VNLG/124 = compound: CCCC(=O)OCc1ccc(OC(=O)/C=C(C)/C=C/C=C(C)/C=C/C2=C(C)CCCC2(C)C)cc1 [VNLG/124]; conditions: top dose 5.12 µM; top dose inferred
Description: (§1)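 Human cancer cell lines in 384-well plates, medium with 10% serum, drug for 72 h over a 256-fold dose range (nine 2-fold or five 4-fold steps up to the top dose). Adherent lines were fixed and stained with the nucleic acid dye Syto60, suspension lines read with resazurin; signal relative to control wells, capped at 0 and 100%. One two-parameter sigmoid per drug and line, fitted in a mixed model over all curves with the slope shared within a line.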

Elesclomol = compound: CN(NC(=O)CC(=O)NN(C)C(=S)c1ccccc1)C(=S)c1ccccc1 [Elesclomol]; conditions: top dose 0.2 µM; top dose inferred
Description: as §1

HG-5-88-01 = compound: COc1cc(N2CCC(C(N)=O)CC2)ccc1Nc1nc(N)c(Cl)c(Nc2ccccc2S(=O)(=O)C(C)C)n1 [HG-5-88-01]; conditions: top dose 10 µM; top dose inferred
Description: as §1

Bleomycin = compound: Cc1c(N)nc([C@H](CC(N)=O)NC[C@H](N)C(N)=O)nc1C(=O)N[C@H](C(=O)N[C@H](C)[C@@H](O)[C@H](C)C(=O)N[C@H](C(=O)NCCc1nc(-c2nc(C(=O)NCCC[S+](C)C)cs2)cs1)[C@@H](C)O)[C@@H](OC1OC(CO)C(O)C(O)C1OC1OC(CO)C(O)C(OC(N)=O)C1O)c1cnc[nH]1 [Bleomycin]
Description: as §1

Masitinib = compound: Cc1ccc(NC(=O)c2ccc(CN3CCN(C)CC3)cc2)cc1Nc1nc(-c2cccnc2)cs1 [Masitinib]; conditions: top dose 20 µM
Description: as §1

LAQ824 = compound: O=C(/C=C/c1ccc(CN(CCO)CCc2c[nH]c3ccccc23)cc1)NO [LAQ824]; conditions: top dose 1.024 µM; top dose inferred
Description: as §1

OSI-930 = compound: O=C(Nc1ccc(OC(F)(F)F)cc1)c1sccc1NCc1ccnc2ccccc12 [OSI-930]; conditions: top dose 10.24 µM
Description: as §1

BX-912 = compound: O=C(Nc1cccc(Nc2ncc(Br)c(NCCc3cnc[nH]3)n2)c1)N1CCCC1 [BX-912]; conditions: top dose 10.24 µM; top dose inferred
Description: as §1

NSC-87877 = compound: O=S(=O)(O)c1ccc2cc(N=Nc3cc(S(=O)(=O)O)c4cccnc4c3O)ccc2c1 [NSC-87877]; conditions: top dose 16 µM; top dose inferred
Description: as §1

Tamoxifen = compound: CC/C(=C(\c1ccccc1)c1ccc(OCCN(C)C)cc1)c1ccccc1 [Tamoxifen]; conditions: top dose 5 µM
Description: as §1

[1] = top dose 50 µM, screen: GDSC drug entry 1378, top dose inferred
[2] = top dose 64 µM, screen: GDSC drug entry 190

Cell Line	AUC (VNLG/124)	IC50 (VNLG/124) [µM]	AUC (Elesclomol)	IC50 (Elesclomol) [µM]	AUC (HG-5-88-01)	IC50 (HG-5-88-01) [µM]	AUC (Bleomycin; [1])	IC50 (Bleomycin; [1]) [µM]	AUC (Bleomycin; [2])	IC50 (Bleomycin; [2]) [µM]	AUC (Masitinib)	IC50 (Masitinib) [µM]	AUC (LAQ824)	IC50 (LAQ824) [µM]	AUC (OSI-930)	IC50 (OSI-930) [µM]	AUC (BX-912)	IC50 (BX-912) [µM]	AUC (NSC-87877)	IC50 (NSC-87877) [µM]	AUC (Tamoxifen)	IC50 (Tamoxifen) [µM]
HCC2218 (breast, suspension)	0.968	> 5.12	0.814	0.146	0.962	> 10	0.958	> 50	0.817	47.9	0.798	12.4	0.317	0.0171	0.921	> 10.2	0.983	> 10.2	0.974	> 16		
MES-SA (uterus, adherent)	0.992	> 5.12			0.976	> 10	0.45	2.33	0.395	2.15			0.567	0.0947	0.992	> 10.2	0.873	7.46	0.981	> 16	0.986	> 5
NCI-H2066 (small cell lung carcinoma, adherent)					0.938	> 10	0.958	> 50													0.977	> 5
Capan-2 (pancreas, adherent)	0.982	> 5.12	0.938	> 0.2	0.866	> 10	0.845	48	0.691	15.5	0.944	> 20	0.685	0.238	0.975	> 10.2	0.93	> 10.2	0.98	> 16		
SU-DHL-10 (B-cell lymphoma, suspension)	0.994	> 5.12			0.994	> 10	0.919	35.6			0.917	14			0.919	7.29	0.346	0.273	0.995	> 16	0.997	> 5
H2810 (mesothelioma, adherent)					0.891	> 10	0.84	39.5													0.984	> 5
CAPAN-1 (pancreas, adherent)	0.987	> 5.12	0.659	0.0364	0.985	> 10	0.892	> 50	0.334	1.3	0.967	> 20	0.629	0.152	0.987	> 10.2	0.961	> 10.2	0.967	> 16		
HCC1428 (breast, adherent)	0.986	> 5.12	0.777	0.0882	0.986	> 10	0.953	> 50	0.896	> 64	0.912	> 20	0.268	0.013	0.978	> 10.2	0.971	> 10.2	0.987	> 16		
SNB75 (glioma, adherent)	0.972	> 5.12	0.782	0.128	0.897	> 10	0.691	13.9	0.403	1.91	0.937	> 20	0.527	0.0787	0.977	> 10.2	0.885	> 10.2	0.978	> 16		
Hs-578-T (breast, adherent)	0.987	> 5.12	0.517	0.0139	0.968	> 10	0.678	10.2	0.951	> 64	0.987	> 20	0.986	> 1.02	0.984	> 10.2	0.96	> 10.2	0.986	> 16		
MKN28 (stomach, adherent)	0.956	> 5.12	0.385	0.00597	0.935	> 10	0.568	4.83	0.039	< 0.25	0.95	> 20	0.413	0.0368	0.98	> 10.2	0.955	> 10.2	0.854	13.1		
HCC1569 (breast, adherent)	0.976	> 5.12	0.969	> 0.2	0.934	> 10	0.864	> 50	0.295	0.861	0.859	> 20	0.448	0.0441	0.965	> 10.2	0.845	> 10.2	0.973	> 16		
OVCAR-8 (ovary, adherent)	0.972	> 5.12	0.295	0.00356	0.943	> 10	0.171	0.365	0.032	< 0.25	0.883	17.5	0.292	0.0179	0.976	> 10.2	0.94	> 10.2	0.981	> 16		
SF268 (glioma, adherent)	0.974	> 5.12	0.322	0.0038	0.975	> 10	0.263	0.619	0.356	1.55	0.879	> 20	0.467	0.0516	0.978	> 10.2	0.872	> 10.2	0.979	> 16		
451Lu (melanoma, adherent)	0.982	> 5.12	0.748	0.0619	0.983	> 10	0.953	> 50	0.384	1.95	0.957	> 20	0.34	0.0235	0.975	> 10.2	0.98	> 10.2	0.98	> 16		
